# In PubChem BioAssay (Tox21):
# Several values for one entry are separate records, joined by “and”; a condition that tells them apart may be missing. Equal entries are not always repeated. Inconclusive means that the source gave no clear call. Such entries were picked first, then a sample of the others. Potencies beside an inconclusive call are fits to weak or partial responses and may not hold up. Where a structure was tested more than once in an assay, its records may differ in their call. Activity calls are given as the source filed them. Calls follow the shape of the dose curve; as a rule, active = well fitted inhibition curve with a large enough effect in the repeat runs; inconclusive = weak or mixed curves; inactive = no such curve, though single readings can be large or run the other way.
# Target: Estrogen receptor (Homo sapiens) (UniProt P03372)
# Assay: qHTS assay to identify small molecule antagonists of the estrogen receptor alpha (ER-alpha) signaling pathway using the BG1 cell line in the presence of 0.1 nM 17-beta-estradiol (AID 1259244); also: nearly all actives have a fitted effect of over 50% in size
# Conditions: VM7Luc4E2 (BG1) ERE-luciferase, antagonist mode, 0.1 nM E2, 22 h; series mostly up to 92.4 µM; activity change, negative = inhibition: at the top concentration
# Description: National Center for Advancing Translational Sciences [NCATS]
# NIH Chemical Genomics Center [NCGC]
# U.S. Environmental Protection Agency [EPA]
# National Institutes of Environmental Health Sciences [NIEHS]
# National Toxicology Program [NTP]
# U.S. Food and Drug Administration [FDA]
# Estrogen receptor (ER), a member of the nuclear hormone receptor plays an important role in development, metabolic homeostasis and reproduction. Two subtypes of ER, ER-alpha and ER-beta, have similar expression patterns with some uniqueness in both types. Endocrine disrupting chemicals (EDCs) and their interactions with steroid hormone receptors like ER causes disruption of normal endocrine function. Therefore, it is important to understand the effect of environmental chemicals in ER signaling pathway. For identifying ER antagonists, VM7Luc4E2 cell line was used to screen against Tox21 compound libraries.
# VM7Luc4E2 cell line (provided by Denison MS, University of California) endogenously express full-length ER-alpha and is stably transfected with a plasmid containing four estrogen responsive elements (ERE) upstream of a luciferase reporter gene. The current screening for identification of ER-alpha inhibitors against Tox21 compound libraries used lower concentration (0.1 nM) of 17beta-Estradiol as a stimulator.
# Tox21 Assay Protocol Summary:
# VM7Luc4E2 cells were cultured in phenol red free assay medium containing 10% charcoal stripped FBS for 5 days prior to the assay. The cells were dispensed at 4,000 cells/well in 4 uL of assay medium into white wall/solid-bottom 1536-well plates (Corning Life Sciences, Corning, NY) using a Multidrop Combi (ThermoFisher Scientific, Waltham, MA) dispenser. After the assay plates were incubated at 37C and 5% CO2 for 24 hr, 23 nL of compounds dissolved in DMSO, positive controls or DMSO only was transferred to the assay plates by a Pintool station (Kalypsys, San Diego, CA). The transfer of compounds was followed by the addition of 1 uL of 0.1 nM (final concentration) agonist (17beta-Estradiol)/assay medium using a Flying Reagent Dispenser (FRD, Aurora Discovery, San Diego, CA). The plates were incubated at 37C and 5% CO2 for 22 hr. For luciferase reporter gene assay, 4 uL of ONE-Glo reagent (Promega Corporation, Madison, WI) was added to each well using the FRD and after 30 min incubation at room temperature luminescence intensity was measured using ViewLux plate reader (PerkinElmer, Shelton, CT).
# % is scaled to controls: 0 for no effect and ±100 for the full control effect; potency is read from the fitted curve at half-maximal effect; tags tell the direction and shape of the fitted curve.
# Chain of UniProt P03372 (P03372 whole entry, looked up): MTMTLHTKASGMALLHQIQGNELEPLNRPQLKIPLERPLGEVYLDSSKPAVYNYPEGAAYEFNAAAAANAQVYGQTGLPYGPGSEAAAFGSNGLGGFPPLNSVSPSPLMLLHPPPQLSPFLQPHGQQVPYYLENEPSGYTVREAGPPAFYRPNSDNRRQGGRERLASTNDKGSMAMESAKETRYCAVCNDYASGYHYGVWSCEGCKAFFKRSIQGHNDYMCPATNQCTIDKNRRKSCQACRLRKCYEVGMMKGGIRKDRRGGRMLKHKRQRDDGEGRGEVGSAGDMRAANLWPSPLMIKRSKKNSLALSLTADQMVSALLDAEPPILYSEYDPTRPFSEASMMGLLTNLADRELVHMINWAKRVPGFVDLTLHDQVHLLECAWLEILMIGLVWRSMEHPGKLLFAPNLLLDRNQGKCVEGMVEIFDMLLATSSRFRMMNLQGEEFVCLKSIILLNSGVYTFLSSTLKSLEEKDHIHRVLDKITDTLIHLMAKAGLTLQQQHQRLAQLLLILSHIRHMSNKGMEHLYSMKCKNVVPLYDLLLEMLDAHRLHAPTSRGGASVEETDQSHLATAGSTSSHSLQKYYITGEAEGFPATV
Compound,Potency,"activity change, negative = inhibition"
CC[C@]1(O)C[C@H]2CN(CCc3c([nH]c4ccccc34)[C@@](C(=O)OC)(c3cc4c(cc3OC)N(C=O)[C@H]3[C@@](O)(C(=O)OC)[C@H](OC(C)=O)[C@]5(CC)C=CCN6CC[C@]43[C@@H]65)C2)C1,"inconclusive: 0.0237 µM [inhibitor, full curve]",–
C[C@@H](NCCCc1cccc(C(F)(F)F)c1)c1cccc2ccccc12,"inconclusive: 29.8 µM [inhibitor, single point]",–
CCN=C1C=CC(=C(c2ccc(N(CC)CC)cc2)c2ccc(N(CC)CC)cc2)c2ccccc21,active: 0.682 µM,–
CCCOc1sc(C(=O)N2CCC(c3cc(CN)ccc3F)CC2)c(C)c1Br,"inconclusive: 62.8 µM [inhibitor, single point]",–
CC(C)(C)c1cc(/C=C2\SC(=N)NC2=O)cc(C(C)(C)C)c1O,inconclusive: 61.1 µM [inhibitor],–
CCn1c2ccccc2c2cc(N)ccc21,"inconclusive: 60.5 µM [inhibitor, partial curve] and inconclusive: 61.1 µM [inhibitor, partial curve, poor fit]",–
C=C(c1ccc(C(=O)O)cc1)c1cc2c(cc1C)C(C)(C)CCC2(C)C,"active: 12.2 µM and inconclusive: 6.68 µM [inhibitor, partial curve]",–
Oc1ccc(Cl)cc1Cc1cc(Cl)ccc1O,"inconclusive: 33.5 µM [inhibitor, single point]",–
CN(C)CCC=C1c2ccccc2CCc2ccccc21,inconclusive: 68.6 µM [inhibitor] and active: 54.5 µM and inactive,–
CC[C@H](c1ccc(O)cc1)[C@@H](CC)c1ccc(O)cc1,"inconclusive: 33.5 µM [inhibitor, single point]",–
O=C(c1ccc(O)cc1)c1ccc(O)cc1O,"inconclusive: 30.9 µM [inhibitor, partial curve, poor fit]",–
CCCCCCCCCCn1cc[n+](CCCCCCCCCC)c1C,active: 3.86 µM,–
O=C1OC2(c3ccccc31)c1cc(Br)c(O)c(Br)c1Oc1c2cc(Br)c(O)c1Br,"inconclusive: 22 µM [inhibitor, partial curve] and inconclusive: 28.1 µM [inhibitor, partial curve]",–
Oc1c(Br)cc(Br)c2cccnc12,"inconclusive: 33.5 µM [inhibitor, single point]",–
Oc1ccc(O)cc1,"inconclusive: 30.5 µM [inhibitor, partial curve]",–
COc1ccc(OC(=O)N(CC(=O)O)Cc2ccc(OCCc3nc(-c4ccccc4)oc3C)cc2)cc1,"inconclusive: 16.8 µM [inhibitor, partial curve]",–
O=C1C=CC(=O)N1c1ccc(Cc2ccc(N3C(=O)C=CC3=O)cc2)cc1,"inconclusive: 77 µM [inhibitor, single point]",–
CCCCCC(=O)O[C@]1(C(C)=O)CC[C@H]2[C@@H]3CCC4=CC(=O)CC[C@]4(C)[C@H]3CC[C@@]21C,"inconclusive: 26.6 µM [inhibitor, single point]",–
CCCCCCOc1cc(C)c(O)c(C)c1C,"inconclusive: 69.4 µM [inhibitor, single point]",–
Cc1c(C)c2c(c(C)c1O)CCC(C)(COc1ccc(CC3SC(=O)NC3=O)cc1)O2 (stereo not given),"inconclusive: 27.3 µM [inhibitor, partial curve] and inconclusive: 26.6 µM [inhibitor, partial curve, poor fit]",–

Compound,Potency,"activity change, negative = inhibition"
COc1ccc2nc(S(=O)Cc3ncc(C)c(OC)c3C)[nH]c2c1 (stereo not given),"inconclusive: 48 µM [inhibitor, partial curve]",–
CC1=C(C(=O)OC(C)C)C(c2cccc([N+](=O)[O-])c2)C(C(=O)OC2CN(C(c3ccccc3)c3ccccc3)C2)=C(N)N1 (stereo not given),"inconclusive: 26.6 µM [inhibitor, partial curve]",–
CCCCCCCC/C=C\CCCCCCCC(=O)N(CCO)CCO,active: 30.5 µM,–
Cc1cc(F)ccc1-c1cc(N2CC[C@@H](O)[C@H]2CO)ncc1N(C)C(=O)C(C)(C)c1cc(C(F)(F)F)cc(C(F)(F)F)c1,inconclusive: 53.6 µM [inhibitor],–
CC(C)(C)c1ccc(C(O)CCCN2CCC(C(O)(c3ccccc3)c3ccccc3)CC2)cc1 (stereo not given),"inconclusive: 33.5 µM [inhibitor, single point]",–
CC(C)(C)CC(C)(C)c1ccccc1O,"inconclusive: 68.9 µM [inhibitor, partial curve, poor fit]",–
CCCCCCCCCCCCCCCC[N+](C)(C)Cc1ccccc1,"inconclusive: 13.3 µM [inhibitor, partial curve, poor fit]",–
Nc1ccc(Nc2ccccc2)cc1,"inconclusive: 48.6 µM [inhibitor, partial curve]",–
Cc1ccc(O)c2ncccc12,active: 11.9 µM,–
Cc1cc(CCN2CCN(c3nsc4ccccc34)CC2)cc2c1NC(=O)CC2(C)C,active: 13.7 µM,–
COc1ccc(C(Cl)=C(c2ccc(OC)cc2)c2ccc(OC)cc2)cc1,active: 2.72 µM and active: 7.7 µM and active: 2.11 µM,–
S=C(SSSSSSC(=S)N1CCCCC1)N1CCCCC1,inconclusive: 15.1 µM [inhibitor],–
COc1ccccc1OCCNCC(O)COc1cccc2[nH]c3ccccc3c12 (stereo not given),"inconclusive: 33.5 µM [inhibitor, single point]",–
O=c1cc(-c2ccccc2)oc2ccccc12,"inconclusive: 77 µM [inhibitor, single point]",–
CN(C[C@@H](CC[N+]12CCC(C3CCCCC3)(CC1)CC2)c1ccc(Cl)c(Cl)c1)C(=O)c1cc(C(F)(F)F)cc(C(F)(F)F)c1,"inconclusive: 77 µM [inhibitor, partial curve, poor fit]",–
COc1ccc(-c2ccc3cc(C(=O)O)ccc3c2)cc1C12CC3CC(CC(C3)C1)C2,"inconclusive: 0.0119 µM [inhibitor, full curve]",–
Cc1cc2c(C(C)C)c(O)c(O)c(C=O)c2c(O)c1-c1c(C)cc2c(C(C)C)c(O)c(O)c(C=O)c2c1O,–,inactive: -23.9% [at 42.5 µM]
O=C1CCCCCCCCCCCCCC1,"inconclusive: 68.6 µM [inhibitor, single point]",–
Oc1ccc(C2(c3ccc(O)cc3)CC3CC2C2CCCC32)cc1 (stereo not given),active: 0.117 µM,–
CSc1ccc2c(c1)N(CCC1CCCCN1C)c1ccccc1S2 (stereo not given),active: 54.3 µM,–
